According to PubChem BioAssay (Tox21):
Inconclusive means that the source gave no clear call. Such entries were picked first, then a sample of the others. A potency beside an inconclusive call is a rough fit, not a confirmed value. The source made the active and inactive calls. Unless noted, the call rests on the fitted dose curve; in most records, active means well fitted cell-killing curve with a large enough effect in the repeat runs; inconclusive means weak or mixed curves, or effect the other way; inactive means no such curve, though single readings can be large or run the other way.

test: qHTS assay for small molecule agonists of the antioxidant response element (ARE) signaling pathway (AID 743202; active means well fitted activation curve with a large enough effect in the signal ratio in the repeat runs, not every such curve was filed as active; inconclusive means weak or mixed curves, or effect the other way; inactive means no such curve, though single readings can be large or run the other way; the % refers to the signal ratio; on activation: on the % scale 0 is the no-effect control and ±100 the full control effect); conditions: HepG2 ARE-bla reporter, beta-lactamase FRET, 16 h; activation: at 73.3 µM (top of the series) unless noted
In short: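 Read-out: LiveBLAzer B/G FRET substrate fluorescence after 2 h at room temperature, following 16 h compound treatment at 37 C of HepG2 cells carrying an ARE-driven beta-lactamase reporter.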
Potency means the concentration at half of the fitted maximal effect; tags describe the fitted curve by direction and shape or compound fluorescence and quenching.

Q: For `CCCCCC[C@@H](O)C/C=C\CCCCCCCC(=O)O`, which activation is on record?
A: inconclusive: 44.6%

Q: With `CCOc1cccc(-n2cc(C(=O)N3CCN(c4cc(C(=O)O)c5ccccc5c4)CC3)nc2-c2ccc(C)cc2)c1` as the molecule, how does the Potency read?
A: active: 9.25 µM

Q: Which activation does the source give for `Clc1cc(Cl)c(Cl)cc1Cl` here?
A: inconclusive: 24%

Q: With `CC(=O)c1ccc(C(C)=O)cc1` as the molecule, how does the “activation” value read?
A: inactive: 1.57% [at 94.8 µM]

Q: Which Potency does the source give for `O=S(=O)(O)CCS` here?
A: inactive

Q: Which Potency does the source give for `CC[C@@H]([C@H](C)O)n1ncn(-c2ccc(N3CCN(c4ccc(OC[C@@H]5CO[C@@](Cn6cncn6)(c6ccc(F)cc6F)C5)cc4)CC3)cc2)c1=O` here?
A: active: 10.6 µM

Q: With `O=C(O)c1cc(-c2ccccc2)nc2ccccc12` as the molecule, how does the Potency read?
A: inconclusive: 61.9 µM [phenotype inactive, partial curve, poor fit] and inactive

Q: For `O=C(Nc1ccccc1)c1ccccc1O`, which Potency is on record?
A: active: 24.3 µM

Q: For `O=C1C(=O)c2ccccc2C(O)=C1C1CCC(c2ccc(Cl)cc2)CC1` (configuration not stated), which Potency is on record?
A: active: 6.68 µM

Q: For `O=C(CCc1ccc(O)cc1)c1c(O)cc(O)cc1O`, which Potency is on record?
A: active: 31.3 µM

Q: For `Cc1ccc([N+](=O)[O-])cc1N`, which Potency is on record?
A: inconclusive: 68.5 µM [rising, single point]

Q: For `N[C@@H](COP(=O)(O)O)C(=O)O`, which “activation” value is on record?
A: inactive: 4.2% [at 34.3 µM]

Q: For `CC(C)C[C@@H](N)C(=O)O`, which “activation” value is on record?
A: inactive: -6.58% [at 34.3 µM]

Q: With `CCCCc1ccc2cccc(S(=O)(=O)O)c2c1` as the molecule, how does the “activation” value read?
A: inactive: 6.85%

Q: Which Potency does the source give for `O=[N+]([O-])C1(Br)COCOC1` here?
A: inconclusive: 68.6 µM

Q: For `O=C1CCCC(=O)C1`, which “activation” value is on record?
A: inactive: -0.942%

Q: Which activation does the source give for `CCCCCCCC/C=C\CCCCCCCC(=O)OC[C@@H](O)[C@H]1OC[C@H](O)[C@H]1O` here?
A: inconclusive: -11.3%

Q: Which Potency does the source give for `CC(=O)[C@H]1CC[C@H]2[C@@H]3C=CC4=CC(=O)CC[C@@]4(C)[C@@H]3CC[C@]12C` here?
A: active: 13.3 µM

Q: For `O=Cc1ccc(C(=O)O)cc1`, which Potency is on record?
A: inconclusive: 63.1 µM

Q: With `CCN(CC)C(=O)N(CC)CC` as the molecule, how does the activation read?
A: inconclusive: -0.991%

Q: With `CCCC(=O)OC` as the molecule, how does the “activation” value read?
A: inactive: 0.557%

Q: For `COc1ccc(C(=O)c2ccccc2O)c(O)c1`, which activation is on record?
A: inconclusive: -10.1%

Q: For `c1ccc2ncccc2c1`, which Potency is on record?
A: inactive

Q: With `O=C1CCc2cc(OCCCCc3nnnn3C3CCCCC3)ccc2N1` as the molecule, how does the activation read?
A: inconclusive: 58.1%

Q: For `Cc1nc(N)nc(N)c1-c1ccc(Cl)c(Cl)c1`, which Potency is on record?
A: inconclusive: 1.06 µM [rising, full curve]

Q: Which activation does the source give for `CCCC(=O)OCCc1ccccc1` here?
A: inconclusive: 22.6%

Q: Which Potency does the source give for `CCCCCCCCCCCCCCN(CCO)CCO` here?
A: inconclusive: 68.6 µM [falling, single point]

Q: With `CC(=O)OC[C@H]1O[C@@H](OC(C)=O)[C@H](OC(C)=O)[C@@H]1OC(C)=O` as the molecule, how does the activation read?
A: inconclusive: 12.5%

Q: Which Potency does the source give for `CCCCCCCCCCCC(=O)[O][Sn]([CH2]CCC)([CH2]CCC)[O]C(=O)CCCCCCCCCCC` here?
A: active: 2.11 µM

test: qHTS assay for small molecule agonists of the antioxidant response element (ARE) signaling pathway - cell viability counter screen (AID 743203; calls by dose curve; further: nearly all actives have a fitted effect of over 55% in size); conditions: ARE-bla HepG2 viability, CellTiter-Glo luminescence, 16 h; viability change, negative = cytotoxic: at 73.3 µM (top of the series)
In short: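 Cells (ARE-bla HepG2, 2,000/well) receive DMSO-dissolved compounds after a 5 hrs rest. Plates incubate 16 hrs at 37C/5% CO2. CellTiter-Glo luminescence is then recorded after 30 min at room temperature.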

Q: Which Potency does the source give for `CCOc1cccc(-n2cc(C(=O)N3CCN(c4cc(C(=O)O)c5ccccc5c4)CC3)nc2-c2ccc(C)cc2)c1` here?
A: inconclusive: 65.5 µM [cytotoxic, single point]

Q: For `O=C1C(=O)c2ccccc2C(O)=C1C1CCC(c2ccc(Cl)cc2)CC1` (configuration not stated), which Potency is on record?
A: inconclusive: 7.5 µM [cytotoxic, partial curve, poor fit]

Q: Which Potency does the source give for `O=C(CCc1ccc(O)cc1)c1c(O)cc(O)cc1O` here?
A: inconclusive: 49.6 µM [cytotoxic, partial curve]

Q: With `O=[N+]([O-])C1(Br)COCOC1` as the molecule, how does the Potency read?
A: inconclusive: 68.6 µM [cytotoxic]

Q: For `COc1ccc(C(=O)c2ccccc2O)c(O)c1`, which Potency is on record?
A: inconclusive: 68.4 µM [cytotoxic, single point]

Q: For `Cc1nc(N)nc(N)c1-c1ccc(Cl)c(Cl)c1`, which Potency is on record?
A: active: 0.668 µM

Q: Which Potency does the source give for `CCCCCCCCCCCCCCN(CCO)CCO` here?
A: active: 61.1 µM

test: qHTS assay for small molecule activators of the heat shock response signaling pathway - cell viability counter screen (AID 743209); conditions: HSE-bla HeLa viability, CellTiter-Glo luminescence, 5 h; activity change, negative = cytotoxicity: at 62.6 µM (top of the series) unless noted; further: nearly all actives have a fitted effect of over 50% in size; on activity change, negative = cytotoxicity: on the % scale 0 is the no-effect control and ±100 the full control effect
In short: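 Quantitative HTS format, Tox21 10K library. HeLa cells carrying an HSE-driven beta-lactamase reporter were treated 5 h at 37 C, then assessed for viability by CellTiter-Glo luminescence.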

Q: Which Potency does the source give for `CCCCCC[C@@H](O)C/C=C\CCCCCCCC(=O)O` here?
A: inconclusive: 61.6 µM [cytotoxic, partial curve, poor fit]

Q: For `O=C(O)c1cc(-c2ccccc2)nc2ccccc12`, which Potency is on record?
A: inconclusive: 4.91 µM [cytotoxic, full curve]

Q: With `O=[N+]([O-])C1(Br)COCOC1` as the molecule, how does the Potency read?
A: active: 49 µM

Q: Which “activity change, negative = cytotoxicity” value does the source give for `CCCC(=O)OC` here?
A: inactive: 4.92%

Q: Which Potency does the source give for `COc1ccc(C(=O)c2ccccc2O)c(O)c1` here?
A: inconclusive: 38.8 µM [cytotoxic, partial curve, poor fit]

Q: With `COc1cnc(NS(=O)(=O)c2ccc(N)cc2)nc1` as the molecule, how does the Potency read?
A: inconclusive: 13.3 µM [rising, single point]

Q: With `CCCCCCCCCCCCCCN(CCO)CCO` as the molecule, how does the Potency read?
A: active: 24.5 µM

Q: For `CCCCCCCCCCCC(=O)[O][Sn]([CH2]CCC)([CH2]CCC)[O]C(=O)CCCCCCCCCCC`, which activity change, negative = cytotoxicity is on record?
A: inconclusive: -46.6% [cytotoxic]

test: qHTS assay for small molecule activators of the heat shock response signaling pathway (AID 743210; active means well fitted activation curve with a large enough effect in the signal ratio in the repeat runs, with a control signal flat, not every such curve was filed as active; inconclusive means weak or mixed curves; the % refers to the signal ratio; on activation: on the % scale 0 is the no-effect control and ±100 the full control effect); conditions: HeLa HSE-bla reporter, beta-lactamase ratio, 5 h; activation: at 62.6 µM (top of the series) unless noted
In short: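 HSE-bla HeLa cells (beta-lactamase reporter under heat shock response elements) were exposed to compounds for 5 h at 37 C, then loaded with LiveBLAzer B/G FRET substrate for 2.5 h at room temperature before fluorescence reading.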

Q: For `CCCCCC[C@@H](O)C/C=C\CCCCCCCC(=O)O`, which Potency is on record?
A: inconclusive: 57.1 µM

Q: With `CCOc1cccc(-n2cc(C(=O)N3CCN(c4cc(C(=O)O)c5ccccc5c4)CC3)nc2-c2ccc(C)cc2)c1` as the molecule, how does the Potency read?
A: inconclusive: 58.8 µM [rising, single point]

Q: For `CC[C@@H]([C@H](C)O)n1ncn(-c2ccc(N3CCN(c4ccc(OC[C@@H]5CO[C@@](Cn6cncn6)(c6ccc(F)cc6F)C5)cc4)CC3)cc2)c1=O`, which “activation” value is on record?
A: inactive: 1.87%

Q: With `O=C(O)c1cc(-c2ccccc2)nc2ccccc12` as the molecule, how does the activation read?
A: inconclusive: 6.46% [at 81.1 µM]

Q: Which Potency does the source give for `O=C1C(=O)c2ccccc2C(O)=C1C1CCC(c2ccc(Cl)cc2)CC1` (configuration not stated) here?
A: inconclusive: 33.5 µM [falling, partial curve, poor fit]

Q: For `O=C(CCc1ccc(O)cc1)c1c(O)cc(O)cc1O`, which Potency is on record?
A: inconclusive: 56.2 µM [falling, partial curve, poor fit]

Q: For `Cc1ccc([N+](=O)[O-])cc1N`, which Potency is on record?
A: inactive

Q: For `Cl[Si](Cl)(c1ccccc1)c1ccccc1`, which Potency is on record?
A: inconclusive: 63.1 µM [falling, partial curve, poor fit]

Q: For `O=[N+]([O-])C1(Br)COCOC1`, which Potency is on record?
A: inconclusive: 54.9 µM [single point]

Q: Which Potency does the source give for `CCCCCCC` here?
A: inconclusive: 26.3 µM [falling, partial curve, poor fit]

Q: For `CC(C)C(OC(=O)c1ccccc1)C(C)(C)COC(=O)c1ccccc1` (configuration not stated), which “activation” value is on record?
A: inactive: 2.07%

Q: Which Potency does the source give for `COc1ccc(C(=O)c2ccccc2O)c(O)c1` here?
A: inconclusive: 48.8 µM

Q: Which Potency does the source give for `CCCCCCCCCCCCCCN(CCO)CCO` here?
A: inconclusive: 50.9 µM
